The results in this text go back to the supplement of paper PMC6206098.

± gives the uncertainty stated by the source. The sequences are guide strands of siRNAs; only the seed at positions 2 to 7 varies.

For one series, the system named is H460. Description: cell viability relative to lipid-only control; higher = less toxic. Particulars: concentration: 10 nM; 96 h; Homo sapiens. The procedure: (§1)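 Arrayed screen of 4096 siRNA duplexes, each carrying one of all possible 6mer seeds at guide-strand positions 2-7 in a fixed neutral 19mer scaffold (constant flanks: U at position 1, then ACAUGUAAACCA, plus a 3' AA overhang). The passenger strand is 2'-O-methylated at positions 1-2 so only the guide strand loads into RISC. Duplexes were reverse-transfected at 10 nM with RNAiMAX in triplicate in 384-well plates; viability was read by CellTiter-Glo ATP content 96 h after transfection. Values are % viability normalised to lipid-only wells (HeyA8, H460, M565) or to siNT1 (3LL).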

The next series relates to HeyA8. Described as above. Particulars: concentration: 10 nM; 96 h; Homo sapiens. How it is done:
as §1

For another series, the system named is M565. Described as above. Particulars: concentration: 10 nM; 96 h; Mus musculus. The procedure: as §1
In the next series the test system is 3LL. Description: cell viability relative to siNT1 control; HeyA8 human ovarian and H460 human lung cancer; M565 mouse liver and 3LL mouse lung cancer; siNT1 is a non-toxic control siRNA; higher = less toxic. To be noted: concentration: 10 nM; 96 h; Mus musculus.
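Wherever cell viability relative to siNT1 control is given: Luminescence-based viability of cells reverse transfected in 384-well plates with lipid-complexed siRNAs built on a non-toxic 19mer backbone whose passenger strand carries 2′-O-methyl groups at positions 1 and 2, triplicates.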

One may read the cell viability as a read-out of living cells in per cent, often relative to untreated cells. Consider UUUAAGGACAUGUAAACCAAA, for which the cell viability in the series with H460 came to 81.2 ± 6%; in the series with HeyA8, 92.9 ± 6.6%; with M565, 91.7 ± 14%; in the series on 3LL it was 99.4 ± 1.8%.

With UUGUGUCACAUGUAAACCAAA, the cell viability was 54.5 ± 13% in the series on H460, 50.7 ± 5.9% in the series with HeyA8, 24.3 ± 6.3% with M565 and 21.9 ± 2.4% in the series on 3LL.

On to UCGCAUGACAUGUAAACCAAA, for which the cell viability in the series with H460 was found to be 62.2 ± 5.5%; with HeyA8, 84.3 ± 8.7%; with M565, 66.1 ± 3.4%; in the series on 3LL it was 101 ± 19%.

UCGAGCGACAUGUAAACCAAA: the cell viability was determined as 77.6 ± 25% in the series on H460, 83.2 ± 5.1% in the series with HeyA8, 75.5 ± 6.3% with M565 and 90.1 ± 22% in the series with 3LL.

UGUUCCGACAUGUAAACCAAA: the cell viability is 31.6 ± 5% with H460, 13 ± 0.48% with HeyA8, 17.4 ± 2.6% in the series with M565 and 61.3 ± 16% with 3LL.

Regarding UUUGGCGACAUGUAAACCAAA, the cell viability with H460 stood at 93.8 ± 9%; in the series on HeyA8 it was 98.6 ± 6.2%; in the series on M565, 79.1 ± 13%; with 3LL, 99.3 ± 5%.

Take UCUGCGUACAUGUAAACCAAA: the cell viability stood at 61.3 ± 3.5% in the series on H460, 81.5 ± 4.2% in the series on HeyA8, 39.8 ± 4.8% with M565 and 96.9 ± 20% in the series on 3LL.

Consider UGACGAGACAUGUAAACCAAA, for which the cell viability was 70.3 ± 1.2% with H460, 76.4 ± 6.1% with HeyA8, 28.7 ± 0.5% with M565 and 79.5 ± 3.5% with 3LL.

For UAGUGGAACAUGUAAACCAAA, the cell viability stood at 51.4 ± 10% with H460, 30.3 ± 0.96% in the series with HeyA8, 59.7 ± 2.6% with M565 and 91.2 ± 6.7% with 3LL.

Turning to UAAGGGAACAUGUAAACCAAA, the cell viability with H460 turned out to be 84.9 ± 30%; in the series on HeyA8 it was 83.3 ± 12%; in the series with M565 it was 57.8 ± 0.74%; in the series with 3LL, 84.5 ± 8.4%.

In the case of UGCAGUAACAUGUAAACCAAA, the cell viability amounted to 49.6 ± 3.9% in the series with H460, 58.1 ± 4.3% in the series with HeyA8, 76.6 ± 3% in the series with M565 and 82.2 ± 8.9% in the series on 3LL.

Take UCCAUUAACAUGUAAACCAAA: the cell viability with H460 was determined as 70 ± 2%; in the series on HeyA8, 89.2 ± 2.6%; in the series on M565 it was 81.1 ± 8.9%; with 3LL, 93.8 ± 26%.

As to UGCAGGUACAUGUAAACCAAA, the cell viability with H460 was found to be 11.1 ± 1.1%; with HeyA8 it was 4.78 ± 0.83%; with M565, 19.2 ± 2.1%; in the series on 3LL, 23.8 ± 11%.

On to UGGUGUUACAUGUAAACCAAA, for which the cell viability with H460 amounted to 29.8 ± 1.8%; in the series on HeyA8, 6.56 ± 0.69%; in the series with M565, 27.8 ± 3.1%; with 3LL, 95 ± 14%.

Turning to UCAUUCCACAUGUAAACCAAA, the cell viability in the series on H460 worked out at 14.3 ± 0.21%; in the series on HeyA8, 32.8 ± 2.5%; in the series on M565, 28.4 ± 8.8%; in the series with 3LL, 85.6 ± 14%.

Take UGUCUACACAUGUAAACCAAA: the cell viability in the series with H460 was determined as 40 ± 9%; in the series on HeyA8, 50.3 ± 1.4%; in the series on M565 it was 46.1 ± 7.4%; in the series with 3LL, 89 ± 12%.

Regarding UCUCCGGACAUGUAAACCAAA, the cell viability in the series on H460 came to 43.2 ± 3.3%; in the series on HeyA8, 81.9 ± 4.3%; with M565, 58.9 ± 14%; with 3LL it was 90.1 ± 12%.

As for UAAACAUACAUGUAAACCAAA, the cell viability in the series on H460 was determined as 89.1 ± 4.6%; in the series with HeyA8, 98.1 ± 7.5%; in the series with M565 it was 85 ± 13%; in the series on 3LL it was 121 ± 15%.

As to UUGUGAAACAUGUAAACCAAA, the cell viability was 47.1 ± 9.2% in the series on H460, 48.3 ± 3.3% in the series with HeyA8, 70.9 ± 6.9% in the series on M565 and 87.3 ± 6.1% in the series with 3LL.

For UGUCGACACAUGUAAACCAAA, the cell viability was found to be 51.9 ± 9.4% in the series with H460, 81.8 ± 42% with HeyA8, 34.3 ± 4.4% with M565 and 75.5 ± 13% with 3LL.

Consider UUGCACAACAUGUAAACCAAA, for which the cell viability was 46.6 ± 4.6% with H460, 80.6 ± 3.9% in the series with HeyA8, 65.9 ± 17% in the series on M565 and 66.4 ± 5% with 3LL.

For UGCCACCACAUGUAAACCAAA, the cell viability in the series with H460 is 39.8 ± 4.4%; in the series on HeyA8, 37.1 ± 3%; in the series with M565 it was 4.97 ± 2.3%; in the series with 3LL it was 38.8 ± 5.8%.

In the case of UUCAUGCACAUGUAAACCAAA, the cell viability in the series with H460 turned out to be 39 ± 0.89%; with HeyA8, 32.7 ± 1.6%; in the series on M565, 26.1 ± 5.1%; in the series on 3LL it was 12.5 ± 2.3%.

Turning to UCGUCCGACAUGUAAACCAAA, the cell viability in the series with H460 worked out at 69.2 ± 13%; in the series on HeyA8, 53.3 ± 7.2%; in the series on M565, 56.5 ± 8.8%; with 3LL it was 60.4 ± 6.4%.

On to UUGACCUACAUGUAAACCAAA, for which the cell viability amounted to 54.3 ± 7.7% with H460, 29.1 ± 1.8% in the series on HeyA8, 38.5 ± 1.5% in the series with M565 and 16.3 ± 3.6% in the series with 3LL.

For the sequence UGUUUCGACAUGUAAACCAAA, the cell viability with H460 stood at 50.9 ± 4.7%; in the series on HeyA8, 48.6 ± 3.9%; in the series on M565, 78.2 ± 9%; with 3LL it was 82.3 ± 5.7%.

On to UCAACCUACAUGUAAACCAAA, for which the cell viability in the series with H460 came to 60.3 ± 0.68%; in the series with HeyA8, 79.7 ± 7.6%; in the series with M565 it was 51.9 ± 13%; in the series with 3LL, 84.2 ± 18%.

With UUAUUCUACAUGUAAACCAAA, the cell viability with H460 is 53.3 ± 3%; in the series on HeyA8, 66.5 ± 3.4%; in the series on M565 it was 31.3 ± 11%; with 3LL, 38 ± 7.9%.

With UCGUGUCACAUGUAAACCAAA, the cell viability came out at 68.7 ± 15% with H460, 65.8 ± 3.1% in the series on HeyA8, 43.8 ± 9% in the series with M565 and 73.2 ± 10% with 3LL.
